# Reference: the supplement of paper PMC3334620
# The full ranking holds about 33,000 sequences; the median of “E-score (-0.5 to 0.5)” is about -0.012, and the highest 2% start at about 0.27. The list shows a part of the results.
# Target: T1, Vhr1 (UniProt P40522)
# T1 sequence: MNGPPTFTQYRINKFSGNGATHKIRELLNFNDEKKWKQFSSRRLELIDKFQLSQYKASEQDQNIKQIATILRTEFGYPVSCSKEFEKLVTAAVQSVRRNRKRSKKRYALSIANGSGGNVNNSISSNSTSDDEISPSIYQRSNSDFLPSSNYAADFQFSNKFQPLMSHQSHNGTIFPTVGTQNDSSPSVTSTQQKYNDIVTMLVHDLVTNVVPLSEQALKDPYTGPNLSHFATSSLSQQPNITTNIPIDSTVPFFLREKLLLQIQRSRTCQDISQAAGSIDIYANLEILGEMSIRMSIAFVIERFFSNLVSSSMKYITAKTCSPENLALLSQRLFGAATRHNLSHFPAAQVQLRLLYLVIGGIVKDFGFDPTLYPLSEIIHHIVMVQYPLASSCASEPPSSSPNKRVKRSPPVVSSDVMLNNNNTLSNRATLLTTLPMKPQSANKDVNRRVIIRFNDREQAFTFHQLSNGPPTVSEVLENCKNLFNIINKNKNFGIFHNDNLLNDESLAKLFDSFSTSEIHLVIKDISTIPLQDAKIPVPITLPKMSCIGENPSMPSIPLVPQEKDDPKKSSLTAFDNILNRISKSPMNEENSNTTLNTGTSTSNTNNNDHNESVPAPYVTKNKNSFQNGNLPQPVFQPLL
# Test: PBM E-score (8-mer binding enrichment) (E-score (-0.5 to 0.5)); higher = stronger / more preferred TF binding; most listed sequences are background and not binding sites
# Conditions: protein concentration: 200 nM; construct: GST-full length
# Procedure: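 Universal 'all 10-mer' protein binding microarrays (Agilent AMADID 015681) probed with GST-tagged S. cerevisiae TFs (full-length or DBD) made by in vitro transcription/translation (PURExpress), about 100-200 nM. Bound TF was detected with fluorescent anti-GST. Each ungapped 8-mer (which stands for itself and its reverse complement) is scored by the PBM enrichment score (E-score), a modified Wilcoxon-Mann-Whitney statistic from -0.5 to +0.5, computed with the Universal PBM Analysis Suite. Scale: above 0.35 generally sequence-specific binding.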
row,Sequence,PBM E-score
1,AACGGAGG,-0.194
2,AGCATTGC,-0.114
3,GGGTACAA,0.178
4,CGGCAAAG,-0.0116
5,ACGTTTCA,-0.142
6,CGACCGGC,0.0826
7,ACCATCAC,0.0424
8,GCGAACTA,0.0464
9,GTAGAGTA,0.0421
10,GGTCACAA,0.0224
11,GACTAATC,0.222
12,GTCCCAAC,0.0257
13,ACTAATTC,0.1
14,CAAGGTGC,-0.203
15,AACCTGGC,-0.0208
16,CGAGATGA,0.0577
17,CCCCTGGC,-0.00704
18,CAGTGAAG,-0.111
19,ATCTTGGG,0.0129
20,AGTGATTC,0.285
21,ACGGTAAT,-0.0641
22,ACATCAGA,0.0668
23,AAAGGCCC,-0.253
24,AGCATTCA,-0.194
25,GATGCATC,0.0854

row,Sequence,PBM E-score
1,ATCCATAA,0.19
2,CATTTAAC,-0.181
3,CTCGCCAC,0.107
4,CCCAAGGA,-0.133
5,GTATCGAC,0.0581
6,ATTCACCG,0.159
7,CAACGGGG,0.0866
8,CCGTCAAG,-0.243
9,AACAATAA,0.0728
10,ATCACCAT,0.265
11,AAACGCCG,-0.0231
12,AGTCTAAC,-0.214
13,ACCTCTGA,0.128
14,GAGAGGGC,-0.255
15,GCAACACA,0.115
16,AACCATGT,0.231
17,ACCGAATG,0.0141
18,CACATGAA,0.0563
19,ATAAGAAC,-0.00548
20,TCTTCGAA,-0.0872
21,CTAAGAAC,0.0818
22,AACTTATA,0.0682
23,ATCAGCGG,0.234
24,CAGCACGG,0.11
25,ACGAGTAG,0.0242

row,Sequence,PBM E-score
1,AGGCTCTC,-0.32
2,CCCTAGTC,0.0644
3,CCACCGTA,0.189
4,GAAGGCTC,-0.228
5,CTGACGCA,-0.244
6,CAATGCCG,-0.0628
7,GATTAGCC,0.18
8,TATTCTCA,0.0274
9,AAATACGG,-0.11
10,AATTTGCC,-0.243
11,CTTCGACC,-0.033
12,ATACCAAT,0.15
13,CCTGAGCG,-0.051
14,TACGTCAA,-0.139
15,ACCATTAA,0.181
16,ATTCCTTA,-0.17
17,AACCCAGA,0.0444
18,AACTAATG,-0.037
19,CTGTGCAA,-0.00898
20,CCGTGACC,0.109
21,AACGGTGT,0.0152
22,GCAGTGAA,0.0869
23,CAGTACTC,0.117
24,CACACATA,0.204
25,CTTGTAGA,-0.262

row,Sequence,PBM E-score
1,CGAACTAG,-0.0301
2,CAGTTTCA,-0.0642
3,CGTCTATC,-0.0309
4,GTACCCAC,0.0583
5,CATAGTAC,0.238
6,GAACCCTC,-0.19
7,GGTTCCGA,0.171
8,CTTCCGCC,-0.0698
9,ATCATTGA,0.127
10,ATGAGAGC,-0.0727
11,GTATGACA,0.0489
12,GAACTTAA,-0.206
13,AGGCACGC,-0.0307
14,TTAACGAA,-0.03
15,GTTTGCTA,0.0847
16,CCACTATC,0.0897
17,GTAACATA,0.245
18,AGCAGTGC,-0.224
19,TTGCGCAA,-0.269
20,TAGGCGGA,-0.0289
21,CGGTGGGC,-0.0877
22,CAACCTTG,-0.0309
23,AATTTACT,-0.11
24,TAGGGTCA,0.0976
25,ACATCGAC,0.0775

row,Sequence,PBM E-score
1,AACTTCGA,0.00079
2,CTCAGATA,0.141
3,AGAACGTG,-0.0258
4,AATAACAT,0.115
5,CTTATTGC,-0.177
6,AAGTATGT,0.0745
7,CAGGCGCA,-0.153
8,AGGCGCAA,-0.0578
9,TTCCGCAA,-0.00609
10,ATCCGAAG,-0.13
11,ATATCCCG,0.135
12,CCCGGACG,-0.133
13,ATCACCAA,0.247
14,AGACCGCC,-0.0196
15,CGCATTTA,-0.0852
16,CCCAGAGG,-0.231
17,ATCCCACC,0.153
18,CGGGTTGA,0.0628
19,CCTGGAAA,-0.0751
20,AAACGGCC,-0.0559
21,GTTCCCTA,-0.146
22,ACTACGAA,-0.0367
23,GCTACCTA,-0.0535
24,GTGATGCA,0.24
25,GTGGAGAA,-0.13

row,Sequence,PBM E-score
1,TACGCGTA,-0.00031
2,CCTTCGCA,-0.171
3,CCGGGGTC,0.0657
4,ATCAAGGC,0.0302
5,ATGGCTGG,0.128
6,ACATCCGT,-0.0304
7,CTCAGCAC,0.0595
8,CACCAGCA,0.0208
9,ACGCAACA,-0.00714
10,GATCACCA,0.12
11,CGGAAAAC,-0.244
12,CATAGATC,0.0557
13,CGTTCGAA,-0.0202
14,AATGCAGA,0.0594
15,CCCCTCGC,-0.0024
16,GGACTACA,0.146
17,GCTGATAA,-0.143
18,AACGTATA,0.082
19,CGCATGAG,0.188
20,ATTACAAT,0.0868
21,ATTCGTCG,0.055
22,TGGTGTAA,0.0856
23,CACTCCCA,-0.0167
24,AAACTACG,0.0254
25,AACTAAAA,-0.168

row,Sequence,PBM E-score
1,CGTCCGTC,-0.0544
2,AGTCCGCA,0.17
3,TCTTGTCA,-0.135
4,CGATAATA,-0.0369
5,TAAATTTA,0.178
6,AACGTCCG,-0.128
7,GATCACTA,0.0933
8,ATGGGTAC,0.209
9,TAAAGCGA,0.0308
10,AACCATCT,0.0784
11,AGTTTAGG,-0.324
12,CACGATGC,0.0886
13,GAGCGGTA,-0.0335
14,CTTCGTCC,-0.161
15,ACAAAAGA,-0.00302
16,AGTATGGC,0.101
17,CTGACAAC,0.129
18,ATCAGGAC,0.0306
19,AGGTTTCG,-0.0888
20,AAGCTGAA,-0.22
21,ATCGAGTG,0.182
22,ACTTGCCG,-0.031
23,GGAGCACC,-0.0314
24,GTTGATAA,0.109
25,GGCCTCCA,-0.0798

row,Sequence,PBM E-score
1,ACGGCTTC,-0.178
2,GAGAATGA,0.0925
3,CGACCACG,0.00369
4,CTGCAGCC,-0.0424
5,ATCGCCGC,0.121
6,GTCCGCGA,0.0371
7,AAGGTGCC,-0.141
8,AACTTTCT,-0.0713
9,ATTTCTCC,-0.0554
10,ATAGTAGC,0.0929
11,AATGCGCC,0.0316
12,CCATTTTA,-0.111
13,GGAAGGCA,-0.192
14,CGTGGCCA,-0.164
15,GTGTGACA,0.00762
16,GGACGGCA,-0.0709
17,CGGATCGC,0.0328
18,ATACGAAG,-0.145
19,AAATAAAC,-0.0673
20,CCGACAGC,-0.116
21,ACCGTTTC,-0.106
22,CTACCGTA,0.167
23,AAGTCTGT,-0.113
24,GACCGCCC,-0.0912
25,CGGGTTGC,-0.0604

row,Sequence,PBM E-score
1,GCCAACGC,-0.215
2,GATCAATC,-0.0153
3,AAACAGGA,0.0183
4,CAGCGCTG,0.0755
5,CCGTAGGA,-0.226
6,CCCTTTAG,-0.343
7,CTACTAGA,0.0179
8,AAGACGAA,-0.0662
9,ATCTCTCC,-0.234
10,TAATGCAA,-0.0903
11,CAAATATG,-0.0219
12,CTAACCAG,0.0386
13,TAATAGCA,-0.00604
14,GCCCCCGA,-0.23
15,ATTTCTTA,-0.13
16,ACTGTTGG,0.034
17,AGACGAAT,0.0561
18,CGATGAAG,-0.068
19,AAGCATCG,-0.143
